± gives the standard deviation of the averaged measurements. The list shows a part of the results.

This test relates to PfAP2-EXP AP2 domain (GST-tagged). The test is described as follows: gcPBM binding intensity (ln(normalized median fluorescence intensity)); higher = stronger DNA binding. Put shortly: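 Binding intensity values are the highest Masliner-normalised natural-log median intensity among replicate spots of either probe orientation. The binding step lasted 1 h in 1× PBS with 1% milk, 0.2 mg/ml BSA, 0.5% salmon testes DNA and 0.03% Triton X-100, using GST-tagged P. falciparum DNA-binding domains expressed in E. coli on an Agilent 4 × 180k array of primer-extended double-stranded 36-bp intergenic genomic probes plus negative controls. Alexa488 anti-GST antibody and a 488 nm scan detected bound protein.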
“AATGTGAAAACGTGTACACATTTTATTTAATTTATC [CACACA_site5966]”: the “gcPBM binding intensity (ln)” value amounted to 8.49 ± 0.33.

Regarding “ATAAATTATATTATTGAACACACGTTTGGTAATGTT [CACACA_site2662]”, the “gcPBM binding intensity (ln)” value is 8.43 ± 0.38. With “AAAAAAATAATAAAAAGTACAAAATGTAGAAAATGT [XGTACX_site5018]” the figure was 9.03 ± 0.37; with “TTTATTAATTTATAGTGTACATATTAATAATATATT [XGTACX_site7949]”, 8.35 ± 0.2; with “ATATATATTATATATTGTACATATTATATTCATTAT [XGTACX_site1766]”, 8.57 ± 0.3. With “TTAATTGAAACTTATTGTACTTTTTTTTTTTTTTTT [XGTACX_site8162]” the figure was 8.46 ± 0.11; with “ATAAATAAAAATAGAACACACATATGTTTTTTTTTT [CACACA_site3556]”, 8.2 ± 0.37.

For the sequence “CCTAGAAAAAAGAACTGTACATATATATATAAATAT [XGTACX_site1680]”, the “gcPBM binding intensity (ln)” value came to 8.62 ± 0.57. Consider “TGAAAAAATATAATTTGTACATATCAGGCAAAAATG [XGTACX_site1824]”, for which the “gcPBM binding intensity (ln)” value turned out to be 8.68 ± 0.38. For “ATATGCAGAGACTGTTTGCACTTTTTTATTTTATGT [GTGCAC_site9695]”, the “gcPBM binding intensity (ln)” value is 8.77 ± 0.2. Regarding “AGGACAAGGGTTACATGTACATATATATATATATAT [XGTACX_site901]”, the “gcPBM binding intensity (ln)” value was 10.1 ± 0.32. Next, “AAGTTATTTATATATACACACAAATATAAATAATAT [CACACA_site1228]”: 8.51 ± 0.39; “CTCAAATTTATTAGTGGTACATAACCAAGGAAATAA [XGTACX_site225]”: 8.6 ± 0.25. Next, ATTATAATTACTCTAGTGCATTATAAATATGAATAA: 8.62 ± 0.057; “TATTATGTTTATTAAACATGCATATATTTATTTATA [TGCATGCA_site187]”: 8.62 ± 0.47; “ATATTTTATCATGTTTAATATTTATGTGGACATAAA [GTGCAC_negctrl_site275]”: 8.53 ± 0.47. Take “AGTTGGATACGAAGATGTACAATAATAATAATTAAG [XGTACX_site3561]”: the “gcPBM binding intensity (ln)” value is 8.9 ± 0.35. Regarding “ACATTTTATATATGTAGTACATATTATAGATAATTT [XGTACX_site1976]”, the “gcPBM binding intensity (ln)” value turned out to be 8.37 ± 0.27. Next, “TATTTTATTTTTTTATGTACACAAAAAAAAAAAAAA [XGTACX_site945]”: 8.22 ± 0.35; “TCACTATAATAATTTACACACATTTTAAGAAAATGG [CACACA_site5867]”: 8.21 ± 0.33; “ATCAAAAACATACCTACACACACAATATGTATATAT [CACACA_site9171]”: 8.38 ± 0.39. Next, “TAAAAAATATAAACTGCACACACACTAATAAAGAAA [CACACA_site8119]”: 8.93 ± 0.47. With “AATATATAAATGTTGTGTACTAAGCAATATATTTTA [XGTACX_site2483]” the figure was 8.57 ± 0.4; with “ATTCGTCACATTTTTTGATATATATATATATATATA [CACACA_negctrl_site1785]”, 10.4 ± 0.4.

Regarding “GCTTATTAATATCATACACACATAGATATATTTATA [CACACA_site3104]”, the “gcPBM binding intensity (ln)” value amounted to 8.56 ± 0.4. With “ATATAGTTGTCATATTGTACACTTTAGGGTTGGTTA [XGTACX_site7339]” the figure was 8.62 ± 0.42; with “CTATTATCGGTTCCTACACACAAATATATATGTCTA [CACACA_site3579]”, 8.75 ± 0.72; with “CAATGGTACATACATACACACACACTAATAAAAAAA [CACACA_site8450]”, 8.59 ± 0.62. With “TACAATCCATATTGTTGTACATTTATAAAATTTACA [XGTACX_site3053]” the figure was 8.28 ± 0.39; with “GTATATATATAAGAAGAAATATATAAATAAAATATA [CACACA_negctrl_site503]”, 8.46 ± 0.46; with “CACAGACACGGACACACACACATATATAATATATAT [CACACA_site4495]”, 8.84 ± 0.33.

Regarding “AAGATATGAACATTTTGTACTTAAAAATTCAATATT [XGTACX_site7103]”, the “gcPBM binding intensity (ln)” value is 8.12 ± 0.46. With “ATATATTTATTTATATGTACATATTATATATTATAG [XGTACX_site3371]”, the “gcPBM binding intensity (ln)” value turned out to be 8.55 ± 0.35.

For the sequence “GATTATACAAAATATACACACGTGTACAGAAATATT [CACACA_site8305]”, the “gcPBM binding intensity (ln)” value was determined as 8.82 ± 0.39.

With “TTATATTAATTTTGTTGTACTATTTGTGCATTAAAT [XGTACX_site4790]”, the “gcPBM binding intensity (ln)” value was 8.96 ± 0.23. Next, “TTTATATAAAATTATTGTACAGTTTTAATATTTTAA [XGTACX_site6807]”: 8.26 ± 0.26; “AAGGATAATATATTAGAACACACATATATATGTAAA [CACACA_site7942]”: 8.73 ± 0.52; “TACATACACAAATACACACACAAATACATACACAAA [CACACA_site704]”: 8.71 ± 0.53. With “TAAACAAATAAATATTGTACATTTTTTCCTTTTAAT [XGTACX_site5594]” the figure was 8.15 ± 0.42; with “ATAAAATTATTATATACATGCAAAATTAATATATTG [TGCATGCA_site507]”, 8.65 ± 0.44. On to “TATCTTCATATATGGTGTACAGATTTTTTTTTTTTT [XGTACX_site5545]”, for which the “gcPBM binding intensity (ln)” value worked out at 8.56 ± 0.5. For the sequence “TTTCTTTTTTTGGGCACACAAAATTTTCTCATTTTA [CACACA_site68]”, the “gcPBM binding intensity (ln)” value came to 8.77 ± 0.36.

On to “ATTATATAATAATGCATGCACCTTATTTTCATTTCA [GTGCAC_site9922]”, for which the “gcPBM binding intensity (ln)” value is 9.99 ± 0.19.

As for “AAAATAAAAAAAATGAATTAGTTAAATGAAAAATAA [CACACA_negctrl_site1294]”, the “gcPBM binding intensity (ln)” value stood at 8.38 ± 0.46. With “TGAATAAATAAACACACACACATATATATATCTGTA [CACACA_site4184]” the figure was 8.44 ± 0.36; with AATATTCAATATAAAGTGCATTATTGTGCCCCTAAT, 8.57 ± 0.17. With “GTTATACATTTGAAAAGTACTCATGATTTTTTTTTT [XGTACX_site8177]” the figure was 8.75 ± 0.45; with “ATAAAAATCAAAAAAAATACATAATAGTAATAATAA [GTGCAC_negctrl_site481]”, 8.55 ± 0.37. With “TTTTTATTGTTATACTTATATTATTTTATGATTAAA [XGTACX_negctrl_site262]”, the “gcPBM binding intensity (ln)” value turned out to be 8.54 ± 0.45. With “AAATAATAAAGTATAACACACATATTTATTTATATA [CACACA_site7822]” the figure was 8.12 ± 0.46.

Consider “AAATAGAAAAAATATACACACACTTATTAAATAAAA [CACACA_site3313]”, for which the “gcPBM binding intensity (ln)” value was found to be 8.61 ± 0.39. With “CTGATATATTATTTATCTGAATATATTAATATGTAT [GTGCAC_negctrl_site82]” the figure was 8.05 ± 0.33; with “AAAATTAAAAAAATATGTACTTATGGGTAACATCAT [XGTACX_site5548]”, 8.39 ± 0.23. Turning to “AAAAAATTTTAATATGCATGTAATTTTGCTTTTTCA [TGCATGCA_site1044]”, the “gcPBM binding intensity (ln)” value stood at 8.51 ± 0.4. Next, “TAATATAGGGGTGTTCAAATAAATTTTGTTATTTTT [CACACA_negctrl_site1203]”: 9.05 ± 0.61; “AGCACGCACAGACACACACACATATTTATATTTATA [CACACA_site6291]”: 8.7 ± 0.45. With “GATGTGTAAATAAGGATATATAACAATCAACAAAAC [XGTACX_negctrl_site494]” the figure was 8.88 ± 0.34.

(Values after the supplement of paper PMC11417369.)
